This is an account of results in US20200270321A1 (Hoffmann-La Roche, published 2020).

For experiment [1], the target named is T1, mouse 4-1BB on activated mouse splenocytes (mouse, UniProt P20334 24-256).
T1 construct: whole, on cells; also called mouse CD137
The experiment can be described thus: flow cytometry on activated mouse splenocytes, gate CD8+ T cells; PE anti-human IgG Fc-gamma F(ab')2; median fluorescence, baseline corrected. On the technique in general: In flow cytometry, cells or beads pass a laser one at a time.

For experiment [2], the target named is T2, human 4-1BB (CD137) on cells (human, UniProt Q07011 24-255).
T2 construct: whole, on cells; also called 4-1BB+ human T cells
Kind of experiment: flow cytometry on activated human PBMC, gate CD8+ T cells; PE anti-human IgG Fc-gamma F(ab')2; median fluorescence, baseline corrected.

Experiment [3] has as its target T2, human 4-1BB (CD137) on cells. Kind of experiment: flow cytometry on activated human T cells, gate CD8+; PE anti-human IgG Fc-gamma F(ab')2; MFI baseline corrected.
Experiment [4] deals with T3, human fibroblast activation protein (huFAP) on cells (human, UniProt Q12884 1-760).
T3 construct: Transfected in NIH/3T3-huFAP clone 39; also called NIH/3T3-huFAP clone 39; WM266-4
Kind of experiment: flow cytometry on NIH/3T3-huFAP clone 39 cells; FITC anti-human IgG Fc-gamma F(ab')2; median fluorescence.

Experiment [5] concerns the target T2, human 4-1BB (CD137) on cells. Kind of experiment: flow cytometry on activated human PBMC, gate CD4+ T cells; PE anti-human IgG Fc-gamma F(ab')2; median fluorescence, baseline corrected.
Experiment [6] has as its target T4, monomeric human 4-1BB His molecule (human).
T4 construct: also called Hu 4-1BB avi His; hu4-1BB avi His
Kind of experiment: SPR (Biacore T100, 25 C), fusion molecule captured by anti-human Fc, hu4-1BB avi His as analyte, 1:1 Langmuir fit. Background: In SPR one partner is held on a chip, and binding of the other changes the refractive index at the surface.

In experiment [7] the target is T3, human fibroblast activation protein …. The experiment can be described thus: flow cytometry on WM266-4 cells; FITC anti-human IgG Fc-gamma F(ab')2; median fluorescence, baseline corrected.
Experiment [8] addresses T5, monomeric human OX40 His molecule (human).
T5 construct: also called Hu OX40 avi His; huOX40 avi His
T5 chain: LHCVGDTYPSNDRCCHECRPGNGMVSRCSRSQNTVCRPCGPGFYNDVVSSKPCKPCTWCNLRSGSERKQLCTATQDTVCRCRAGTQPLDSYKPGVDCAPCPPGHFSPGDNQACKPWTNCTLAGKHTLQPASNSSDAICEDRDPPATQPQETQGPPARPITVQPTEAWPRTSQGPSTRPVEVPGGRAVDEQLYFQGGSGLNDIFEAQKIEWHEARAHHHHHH
Kind of experiment: SPR (Biacore T100, 25 C), fusion molecule captured by anti-human Fc, huOX40 avi His as analyte, 1:1 Langmuir fit.

The target of experiment [9] is T6, human OX40 (CD134) on cells (human, UniProt P43489 29-277).
T6 construct: whole, on cells
T6 sequence (looked up): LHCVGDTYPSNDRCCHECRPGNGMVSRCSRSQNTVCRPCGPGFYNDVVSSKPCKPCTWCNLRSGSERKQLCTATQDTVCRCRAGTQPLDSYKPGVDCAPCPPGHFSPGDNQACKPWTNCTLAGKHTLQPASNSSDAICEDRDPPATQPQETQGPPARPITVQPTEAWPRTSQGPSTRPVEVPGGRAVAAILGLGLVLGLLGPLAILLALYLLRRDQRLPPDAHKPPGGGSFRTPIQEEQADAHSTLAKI
Kind of experiment: flow cytometry on activated human PBMC, gate CD8+ T cells; FITC anti-human IgG Fc-gamma F(ab')2; MFI baseline corrected.

Experiment [10] addresses T6, human OX40 (CD134) on cells. Kind of experiment: flow cytometry on activated human PBMC, gate CD4+ T cells; FITC anti-human IgG Fc-gamma F(ab')2; MFI baseline corrected.

T1 sequence (P20334 24-256): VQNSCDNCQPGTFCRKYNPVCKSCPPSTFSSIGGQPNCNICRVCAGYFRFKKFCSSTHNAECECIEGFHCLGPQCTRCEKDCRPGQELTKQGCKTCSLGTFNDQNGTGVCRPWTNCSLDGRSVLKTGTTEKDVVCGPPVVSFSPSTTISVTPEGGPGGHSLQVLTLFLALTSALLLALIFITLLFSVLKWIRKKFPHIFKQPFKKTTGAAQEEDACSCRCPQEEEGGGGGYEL

B1: Monovalent FAP(28H1)-targeted single chain 4-1BB ligand trimer-containing Fc (kih) fusion antigen binding molecule (Compound S1) (Fc fusion)
chain: [left out - about 200 residues]GGGGSGGGGSREGPELSPDDPAGLLDLRQGMFAQLVAQNVLLIDGPLSWYSDPGLAGVSLTGGLSYKEDTKELVVAKAGVYYVFFQLELRRVVAGEGSGSVSLALHLQPLRSAAGAAALALTVDLPPASSEARNSAFGFQGRLLHLSAGQRLGVHLHTEARARHAWQLTQGATVLGLFRVTPEIPAGLPSPRSEGGGGSGGGGSREGPELSPDDPAGLLDLRQGMFAQLVAQNVLLIDGPLSWYSDPGLAGVSLTGGLSYKEDTKELVVAKAGVYYVFFQLELRRVVAGEGSGSVSLALHLQPLRSAAGAAALALTVDLPPASSEARNSAFGFQGRLLHLSAGQRLGVHLHTEARARHAWQLTQGATVLGLFRVTPEIPAGLPSPRSEGSPGSSSSGS[left out - human IgG1 Fc with changes]
heavy: EVQLLESGGGLVQPGGSLRLSCAASGFTFSSHAMSWVRQAPGKGLEWVSAIWASGEQYYADSVKGRFTISRDNSKNTLYLQMNSLRAEDTAVYYCAKGWLGNFDYWGQGTLVTVSSASTKGPSVFPLAPSSKSTSGGTAALGCLVKDYFPEPVTVSWNSGALTSGVHTFPAVLQSSGLYSLSSVVTVPSSSLGTQTYICNVNHKPSNTKVDKKVEPKSCDKTHTCPPCPAPEAAGGPSVFLFPPKPKDTLMISRTPEVTCVVVDVSHEDPEVKFNWYVDGVEVHNAKTKPREEQYNSTYRVVSVLTVLHQDWLNGKEYKCKVSNKALGAPIEKTISKAKGQPREPQVCTLPPSRDELTKNQVSLSCAVKGFYPSDIAVEWESNGQPENNYKTTPPVLDSDGSFFLVSKLTVDKSRWQQGNVFSCSVMHEALHNHYTQKSLSLSPGK
light: EIVLTQSPGTLSLSPGERATLSCRASQSVSRSYLAWYQQKPGQAPRLLIIGASTRATGIPDRFSGSGSGTDFTLTISRLEPEDFAVYYCQQGQVIPPTFGQGTKVEIKRTVAAPSVFIFPPSDEQLKSGTASVVCLLNNFYPREAKVQWKVDNALQSGNSQESVTEQDSKDSTYSLSSTLTLSKADYEKHKVYACEVTHQGLSSPVTKSFNRGEC
notes: Heterodimer of knob chain, hole chain and one light chain; human IgG1 Fc with P329G, L234A, L235A and knob-into-hole mutations; also called FAP single chain 4-1BBL trimer; FAP-targeted single chain trimeric 4-1BBL
On to B1, for which the binding result in [1] is “no binding (tested: about 400 nM)”. Also, the EC50 (read off the curve) (as a rule, the concentration that produces a half-maximal response) in experiment [2] is around 0.8 nM; in experiment [3], around 0.06 nM; in experiment [4], around 5 nM; in [5], around 0.8 nM. In experiment [6], binding was put at a Kd of 540 nM. For the same molecule, the off-rate (koff) – broadly, a measure of how fast the partners let go of each other – in [6] amounted to 0.033 s⁻¹. In addition, the kon (commonly the second-order rate constant of association) in experiment [6] stood at 62000 M⁻¹ s⁻¹.

B2: Monovalent DP47-containing single chain 4-1BB ligand trimer-containing Fc (kih) fusion antigen binding molecule (Control 1) (Fc fusion)
chain: [left out - about 200 residues]GGGGSGGGGSREGPELSPDDPAGLLDLRQGMFAQLVAQNVLLIDGPLSWYSDPGLAGVSLTGGLSYKEDTKELVVAKAGVYYVFFQLELRRVVAGEGSGSVSLALHLQPLRSAAGAAALALTVDLPPASSEARNSAFGFQGRLLHLSAGQRLGVHLHTEARARHAWQLTQGATVLGLFRVTPEIPAGLPSPRSEGGGGSGGGGSREGPELSPDDPAGLLDLRQGMFAQLVAQNVLLIDGPLSWYSDPGLAGVSLTGGLSYKEDTKELVVAKAGVYYVFFQLELRRVVAGEGSGSVSLALHLQPLRSAAGAAALALTVDLPPASSEARNSAFGFQGRLLHLSAGQRLGVHLHTEARARHAWQLTQGATVLGLFRVTPEIPAGLPSPRSEGSPGSSSSGS[left out - human IgG1 Fc with changes]
heavy: [left out - about 100 residues]GSGFDYWGQGTLVTVSSASTKGPSVFPLAPSSKSTSGGTAALGCLVKDYFPEPVTVSWNSGALTSGVHTFPAVLQSSGLYSLSSVVTVPSSSLGTQTYICNVNHKPSNTKVDKKVEPKSCDKTHTCPPCPAPEAAGGPSVFLFPPKPKDTLMISRTPEVTCVVVDVSHEDPEVKFNWYVDGVEVHNAKTKPREEQYNSTYRVVSVLTVLHQDWLNGKEYKCKVSNKALGAPIEKTISKAKGQPREPQVCTLPPSRDELTKNQVSLSCAVKGFYPSDIAVEWESNGQPENNYKTTPPVLDSDGSFFLVSKLTVDKSRWQQGNVFSCSVMHEALHNHYTQKSLSLSPGK
light: [left out - about 100 residues][left out - about 100 residues]
notes: also called DP47 single chain 4-1BBL trimer; DP47-containing single chain trimeric 4-1BBL
As to B2, the binding result in experiment [1] is on record as “no binding”; in experiment [4], “no binding (tested: 300 nM)”. Besides, the concentration for a half-maximal effect (EC50 (read off the curve)) is around 0.5 nM in [2], around 0.04 nM in experiment [3] and around 0.6 nM in experiment [5]. Moreover, the equilibrium dissociation constant (Kd) (in general, the constant that tells how readily two partners part at equilibrium) in experiment [6] was 520 nM. Besides, the koff in experiment [6] stood at 0.033 s⁻¹. The same molecule gave a kon in experiment [6] of 62000 M⁻¹ s⁻¹.

B3: FAP(28H1)-targeted human OX40 ligand trimer-containing Fc (kih) fusion molecule (Compound S10) (Fc fusion)
chain: QVSHRYPRIQSIKVQFTEYKKEKGFILTSQKEDEIMKVQDNSVIINCDGFYLISLKGYFSQEVDISLHYQKDEEPLFQLKKVRSVNSLMVASLTYKDKVYLNVTTDNTSLDDFHVNGGELILIHQNPGEFCVLGGGGSGGGGSQVSHRYPRIQSIKVQFTEYKKEKGFILTSQKEDEIMKVQDNSVIINCDGFYLISLKGYFSQEVDISLHYQKDEEPLFQLKKVRSVNSLMVASLTYKDKVYLNVTTDNTSLDDFHVNGGELILIHQNPGEFCVLGGGGSGGGGSQVSHRYPRIQSIKVQFTEYKKEKGFILTSQKEDEIMKVQDNSVIINCDGFYLISLKGYFSQEVDISLHYQKDEEPLFQLKKVRSVNSLMVASLTYKDKVYLNVTTDNTSLDDFHVNGGELILIHQNPGEFCVLGSPGSSSSGS[left out - human IgG1 Fc with changes]
heavy: B1 heavy
light: B1 light
notes: also called FAP single chain OX40L trimer; FAP single chain OX40 trimer
Take B3: the binding result in experiment [7] is “binds”. Besides, in experiment [8], the affinity, expressed as Kd, was 750 nM; the koff stood at 0.13 s⁻¹; the association rate constant (kon) stood at 180000 M⁻¹ s⁻¹. The binding result in experiment [9] is listed as “binds”.

B4: DP47-containing single chain OX40 ligand trimer-containing Fc (kih) fusion molecule (Control 3) (Fc fusion)
chain: QVSHRYPRIQSIKVQFTEYKKEKGFILTSQKEDEIMKVQDNSVIINCDGFYLISLKGYFSQEVDISLHYQKDEEPLFQLKKVRSVNSLMVASLTYKDKVYLNVTTDNTSLDDFHVNGGELILIHQNPGEFCVLGGGGSGGGGSQVSHRYPRIQSIKVQFTEYKKEKGFILTSQKEDEIMKVQDNSVIINCDGFYLISLKGYFSQEVDISLHYQKDEEPLFQLKKVRSVNSLMVASLTYKDKVYLNVTTDNTSLDDFHVNGGELILIHQNPGEFCVLGGGGSGGGGSQVSHRYPRIQSIKVQFTEYKKEKGFILTSQKEDEIMKVQDNSVIINCDGFYLISLKGYFSQEVDISLHYQKDEEPLFQLKKVRSVNSLMVASLTYKDKVYLNVTTDNTSLDDFHVNGGELILIHQNPGEFCVLGSPGSSSSGS[left out - human IgG1 Fc with changes]
heavy: [left out - about 100 residues]GSGFDYWGQGTLVTVSSASTKGPSVFPLAPSSKSTSGGTAALGCLVKDYFPEPVTVSWNSGALTSGVHTFPAVLQSSGLYSLSSVVTVPSSSLGTQTYICNVNHKPSNTKVDKKVEPKSCDKTHTCPPCPAPEAAGGPSVFLFPPKPKDTLMISRTPEVTCVVVDVSHEDPEVKFNWYVDGVEVHNAKTKPREEQYNSTYRVVSVLTVLHQDWLNGKEYKCKVSNKALGAPIEKTISKAKGQPREPQVCTLPPSRDELTKNQVSLSCAVKGFYPSDIAVEWESNGQPENNYKTTPPVLDSDGSFFLVSKLTVDKSRWQQGNVFSCSVMHEALHNHYTQKSLSLSPGK
light: [left out - about 100 residues][left out - about 100 residues]
notes: Untargeted control; also called DP47 single chain OX40L trimer; DP47-containing single chain trimeric OX40L
Regarding B4, in [10], the concentration giving a half-maximal response (EC50 (read off the curve)) is around 0.8 nM. For the same molecule, the binding result in experiment [7] is “no binding (tested: 100 nM)”.
